Some of the results follow.
Key:
Experiment in all cases: glycan array binding signal (z-score within array); higher = stronger binding
Details in all cases: glycan notation: IUPAC condensed, linker removed
[1] = molecular target: GlcNAc(b1-2)[GlcNAc(b1-4)]Man(a1-3)[GlcNAc(b1-4)][GlcNAc(b1-2)Man(a1-6)]Man(b1-4)GlcNAc(b1-4)GlcNAc
In short: (§1)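 The binding signal is a Z-score computed within each array and averaged over linkers. Arrays of the same protein sequence at different concentrations or buffers were also averaged together. Data originate from 3228 arrays in the Consortium for Functional Glycomics database, kept only where the protein sequence was available.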

[2] = molecular target: GlcNAc(b1-2)[GlcNAc(b1-4)]Man(a1-3)[GlcNAc(b1-4)][GlcNAc(b1-2)[GlcNAc(b1-6)]Man(a1-6)]Man(b1-4)GlcNAc(b1-4)GlcNAc
In short: as §1

[3] = molecular target: GlcNAc(b1-2)[GlcNAc(b1-4)]Man(a1-3)[GlcNAc(b1-4)][GlcNAc(b1-2)[GlcNAc(b1-6)]Man(a1-6)]Man(b1-4)GlcNAc(b1-4)[Fuc(a1-6)]GlcNAc
In short: as §1

[4] = molecular target: GlcNAc(b1-2)[GlcNAc(b1-6)]Man(a1-6)[GlcNAc(b1-2)Man(a1-3)]Man(b1-4)GlcNAc(b1-4)GlcNAc
In short: as §1

[5] = molecular target: GlcNAc(b1-2)[GlcNAc(b1-6)]Man(a1-6)[GlcNAc(b1-2)Man(a1-3)]Man(b1-4)GlcNAc(b1-4)[Fuc(a1-6)]GlcNAc
In short: as §1

[6] = molecular target: GlcNAc(b1-2)[GlcNAc(b1-6)]Man(a1-6)[GlcNAc(b1-4)][GlcNAc(b1-2)Man(a1-3)]Man(b1-4)GlcNAc(b1-4)GlcNAc
In short: as §1

GlcNAc(b1-3)Fuc = molecular target: GlcNAc(b1-3)Fuc
In short: as §1

GlcNAc(b1-3)Gal = molecular target: GlcNAc(b1-3)Gal
In short: as §1

[7] = molecular target: GlcNAc(b1-3)Gal(b1-3)GalNAc
In short: as §1

GlcNAc(b1-3)Gal(b1-4)Glc = molecular target: GlcNAc(b1-3)Gal(b1-4)Glc
In short: as §1

[8] = molecular target: GlcNAc(b1-3)Gal(b1-4)GlcNAc
In short: as §1

[9] = molecular target: GlcNAc(b1-3)Gal(b1-4)GlcNAc(b1-2)Man(a1-3)[GlcNAc(b1-3)Gal(b1-4)GlcNAc(b1-2)Man(a1-6)]Man(b1-4)GlcNAc(b1-4)GlcNAc
In short: as §1

[10] = molecular target: GlcNAc(b1-3)Gal(b1-4)GlcNAc(b1-2)Man(a1-3)[GlcNAc(b1-3)Gal(b1-4)GlcNAc(b1-2)Man(a1-6)]Man(b1-4)GlcNAc(b1-4)[Fuc(a1-6)]GlcNAc
In short: as §1

[11] = molecular target: GlcNAc(b1-3)Gal(b1-4)GlcNAc(b1-2)[GlcNAc(b1-3)Gal(b1-4)GlcNAc(b1-6)]Man(a1-6)[GlcNAc(b1-3)Gal(b1-4)GlcNAc(b1-2)Man(a1-3)]Man(b1-4)GlcNAc(b1-4)GlcNAc
In short: as §1

[12] = molecular target: GlcNAc(b1-3)Gal(b1-4)GlcNAc(b1-3)Gal(b1-4)GlcNAc
In short: as §1

[13] = molecular target: GlcNAc(b1-3)Gal(b1-4)GlcNAc(b1-3)Gal(b1-4)GlcNAc(b1-2)Man(a1-3)[GlcNAc(b1-3)Gal(b1-4)GlcNAc(b1-3)Gal(b1-4)GlcNAc(b1-2)Man(a1-6)]Man(b1-4)GlcNAc(b1-4)GlcNAc
In short: as §1

[14] = molecular target: GlcNAc(b1-3)Gal(b1-4)GlcNAc(b1-3)Gal(b1-4)GlcNAc(b1-2)Man(a1-3)[GlcNAc(b1-3)Gal(b1-4)GlcNAc(b1-3)Gal(b1-4)GlcNAc(b1-2)Man(a1-6)]Man(b1-4)GlcNAc(b1-4)[Fuc(a1-6)]GlcNAc
In short: as §1

[15] = molecular target: GlcNAc(b1-3)Gal(b1-4)GlcNAc(b1-3)Gal(b1-4)GlcNAc(b1-2)[GlcNAc(b1-3)Gal(b1-4)GlcNAc(b1-3)Gal(b1-4)GlcNAc(b1-6)]Man(a1-6)[GlcNAc(b1-3)Gal(b1-4)GlcNAc(b1-3)Gal(b1-4)GlcNAc(b1-2)Man(a1-3)]Man(b1-4)GlcNAc(b1-4)[Fuc(a1-6)]GlcNAc
In short: as §1

[16] = molecular target: GlcNAc(b1-3)Gal(b1-4)GlcNAc(b1-3)Gal(b1-4)GlcNAc(b1-3)Gal(b1-4)GlcNAc(b1-2)Man(a1-3)[GlcNAc(b1-3)Gal(b1-4)GlcNAc(b1-3)Gal(b1-4)GlcNAc(b1-3)Gal(b1-4)GlcNAc(b1-2)Man(a1-6)]Man(b1-4)GlcNAc(b1-4)GlcNAc
In short: as §1

[17] = molecular target: GlcNAc(b1-3)Gal(b1-4)GlcNAc(b1-3)Gal(b1-4)GlcNAc(b1-3)Gal(b1-4)GlcNAc(b1-2)Man(a1-3)[GlcNAc(b1-3)Gal(b1-4)GlcNAc(b1-3)Gal(b1-4)GlcNAc(b1-3)Gal(b1-4)GlcNAc(b1-2)Man(a1-6)]Man(b1-4)GlcNAc(b1-4)[Fuc(a1-6)]GlcNAc
In short: as §1

[18] = molecular target: GlcNAc(b1-3)Gal(b1-4)GlcNAc(b1-3)Gal(b1-4)GlcNAc(b1-3)Gal(b1-4)GlcNAc(b1-2)[GlcNAc(b1-3)Gal(b1-4)GlcNAc(b1-3)Gal(b1-4)GlcNAc(b1-3)Gal(b1-4)GlcNAc(b1-6)]Man(a1-6)[GlcNAc(b1-3)Gal(b1-4)GlcNAc(b1-3)Gal(b1-4)GlcNAc(b1-3)Gal(b1-4)GlcNAc(b1-2)Man(a1-3)]Man(b1-4)GlcNAc(b1-4)[Fuc(a1-6)]GlcNAc
In short: as §1

[19] = molecular target: GlcNAc(b1-3)Gal(b1-4)GlcNAc(b1-3)Gal(b1-4)GlcNAc(b1-3)Gal(b1-4)GlcNAc(b1-3)Gal(b1-4)GlcNAc(b1-2)Man(a1-3)[GlcNAc(b1-3)Gal(b1-4)GlcNAc(b1-3)Gal(b1-4)GlcNAc(b1-3)Gal(b1-4)GlcNAc(b1-3)Gal(b1-4)GlcNAc(b1-2)Man(a1-6)]Man(b1-4)GlcNAc(b1-4)GlcNAc
In short: as §1

[20] = molecular target: GlcNAc(b1-3)Gal(b1-4)GlcNAc(b1-3)Gal(b1-4)GlcNAc(b1-3)Gal(b1-4)GlcNAc(b1-3)Gal(b1-4)GlcNAc(b1-2)Man(a1-3)[GlcNAc(b1-3)Gal(b1-4)GlcNAc(b1-3)Gal(b1-4)GlcNAc(b1-3)Gal(b1-4)GlcNAc(b1-3)Gal(b1-4)GlcNAc(b1-2)Man(a1-6)]Man(b1-4)GlcNAc(b1-4)[Fuc(a1-6)]GlcNAc
In short: as §1

[21] = molecular target: GlcNAc(b1-3)Gal(b1-4)GlcNAc(b1-3)Gal(b1-4)GlcNAc(b1-3)Gal(b1-4)GlcNAc(b1-3)Gal(b1-4)GlcNAc(b1-2)[GlcNAc(b1-3)Gal(b1-4)GlcNAc(b1-3)Gal(b1-4)GlcNAc(b1-3)Gal(b1-4)GlcNAc(b1-3)Gal(b1-4)GlcNAc(b1-6)]Man(a1-6)[GlcNAc(b1-3)Gal(b1-4)GlcNAc(b1-3)Gal(b1-4)GlcNAc(b1-3)Gal(b1-4)GlcNAc(b1-3)Gal(b1-4)GlcNAc(b1-2)Man(a1-3)]Man(b1-4)GlcNAc(b1-4)[Fuc(a1-6)]GlcNAc
In short: as §1

[22] = molecular target: GlcNAc(b1-3)Gal(b1-4)GlcNAc(b1-3)Gal(b1-4)GlcNAc(b1-3)GalNAc
In short: as §1

[23] = molecular target: GlcNAc(b1-3)Gal(b1-4)GlcNAc(b1-3)GalNAc
In short: as §1

[24] = molecular target: GlcNAc(b1-3)Gal(b1-4)GlcNAc(b1-3)[GlcNAc(b1-3)Gal(b1-4)GlcNAc(b1-3)]GalNAc
In short: as §1

[25] = molecular target: GlcNAc(b1-3)Gal(b1-4)GlcNAc(b1-6)[Gal(b1-3)]GalNAc
In short: as §1

[26] = molecular target: GlcNAc(b1-3)Gal(b1-4)GlcNAc(b1-6)[GlcNAc(b1-3)Gal(b1-3)]GalNAc
In short: as §1

[27] = molecular target: GlcNAc(b1-3)Gal(b1-4)GlcNAc(b1-6)[GlcNAc(b1-3)]Gal(b1-4)GlcNAc
In short: as §1

GlcNAc(b1-3)GalNAc = molecular target: GlcNAc(b1-3)GalNAc
In short: as §1

GlcNAc(b1-3)Man = molecular target: GlcNAc(b1-3)Man
In short: as §1

[28] = molecular target: GlcNAc(b1-3)[GlcNAc(b1-4)][GlcNAc(b1-6)]GlcNAc
In short: as §1

[29] = molecular target: GlcNAc(b1-3)[GlcNAc(b1-6)]Gal(b1-4)GlcNAc
In short: as §1

[30] = molecular target: GlcNAc(b1-3)[GlcNAc(b1-6)]GalNAc
In short: as §1

[31] = molecular target: GlcNAc(b1-3)[GlcNAc(b1-6)]GlcNAc(b1-4)GlcNAc
In short: as §1

[32] = molecular target: GlcNAc(b1-4)Gal(b1-4)GlcNAc
In short: as §1

GlcNAc(b1-4)GlcNAc = molecular target: GlcNAc(b1-4)GlcNAc
In short: as §1

[33] = molecular target: GlcNAc(b1-4)GlcNAc(b1-4)GlcNAc
In short: as §1

[34] = molecular target: GlcNAc(b1-4)GlcNAc(b1-4)GlcNAc(b1-4)GlcNAc(b1-4)GlcNAc
In short: as §1

[35] = molecular target: GlcNAc(b1-4)GlcNAc(b1-4)GlcNAc(b1-4)GlcNAc(b1-4)GlcNAc(b1-4)GlcNAc
In short: as §1

[36] = molecular target: GlcNAc(b1-4)[GlcNAc(b1-6)]GalNAc
In short: as §1

[37] = molecular target: GlcNAc(b1-6)Gal(b1-4)GlcNAc
In short: as §1

GlcNAc(b1-6)GalNAc = molecular target: GlcNAc(b1-6)GalNAc
In short: as §1

[38] = molecular target: GlcNAc6S(b1-3)Gal(b1-4)GlcNAc
In short: as §1

B1: CSA (Cytisus scoparius), P29257 (protein)
chain: SEELSFSFTKFKTDQKNLILQRDALITPTGKLQLTTVENGKPAAYSLGRALYSTPIHIWDKSTGDEASFATFFSFVISDAPNPSTAATDGLAFFLAPADTQPQSAGGYLGLFEKDSSYNSSNQIVAVEFDTYYNSAWDPQTNPHIGIDVNTIKSKKVSSWGFKNGNVATVLITYQPSSKSLVASLVYPSGQTSDKTSYIISANVDLKATVPEWVRIGFSATTGQTDNYIETHDILSWSFKSKLPATKN
glycan array binding signal (z-score) [1]: -0.241
glycan array binding signal (z-score) [2]: -0.21
glycan array binding signal (z-score) [3]: -0.166
glycan array binding signal (z-score) [4]: -0.131
glycan array binding signal (z-score) [5]: -0.197
glycan array binding signal (z-score) [6]: -0.222
glycan array binding signal (z-score) (GlcNAc(b1-3)Fuc): -0.151
glycan array binding signal (z-score) (GlcNAc(b1-3)Gal): -0.192
glycan array binding signal (z-score) [7]: -0.184
glycan array binding signal (z-score) (GlcNAc(b1-3)Gal(b1-4)Glc): -0.204
glycan array binding signal (z-score) [8]: -0.188
glycan array binding signal (z-score) [9]: -0.231
glycan array binding signal (z-score) [10]: -0.148
glycan array binding signal (z-score) [11]: -0.112
glycan array binding signal (z-score) [12]: -0.161
glycan array binding signal (z-score) [13]: 0.145
glycan array binding signal (z-score) [14]: -0.191
glycan array binding signal (z-score) [15]: -0.13
glycan array binding signal (z-score) [16]: -0.141
glycan array binding signal (z-score) [17]: 0.013
glycan array binding signal (z-score) [18]: -0.212
glycan array binding signal (z-score) [19]: -0.144
glycan array binding signal (z-score) [20]: -0.14
glycan array binding signal (z-score) [21]: -0.168
glycan array binding signal (z-score) [22]: -0.141
glycan array binding signal (z-score) [23]: -0.288
glycan array binding signal (z-score) [24]: -0.212
glycan array binding signal (z-score) [25]: -0.205
glycan array binding signal (z-score) [26]: -0.218
glycan array binding signal (z-score) [27]: -0.248
glycan array binding signal (z-score) (GlcNAc(b1-3)GalNAc): -0.217
glycan array binding signal (z-score) (GlcNAc(b1-3)Man): -0.189
glycan array binding signal (z-score) [28]: -0.198
glycan array binding signal (z-score) [29]: -0.218
glycan array binding signal (z-score) [30]: -0.159
glycan array binding signal (z-score) [31]: -0.189
glycan array binding signal (z-score) [32]: -0.213
glycan array binding signal (z-score) (GlcNAc(b1-4)GlcNAc): -0.148
glycan array binding signal (z-score) [33]: -0.198
glycan array binding signal (z-score) [34]: -0.22
glycan array binding signal (z-score) [35]: -0.173
glycan array binding signal (z-score) [36]: -0.198
glycan array binding signal (z-score) [37]: -0.221
glycan array binding signal (z-score) (GlcNAc(b1-6)GalNAc): -0.118
glycan array binding signal (z-score) [38]: -0.128
